Measured values published in the supplement of paper PMC9046079.
± gives the standard deviation of the averaged measurements. The list shows a part of the results.

Experiments:
[1] = system: murine small intestinal organoids (ENR+CD Paneth differentiation); assay: cellular ATP (CellTiter-Glo 3D) relative to plate median (log10 fold change); higher = more viable cells; details: 6 d
[2] = system: murine small intestinal organoids (ENR+CD Paneth differentiation); assay: carbachol-stimulated secreted lysozyme activity relative to plate median (log10 fold change); higher = more Paneth cell lysozyme secretion; details: 6 d, carbachol 10 µM
[3] = system: murine small intestinal organoids (ENR+CD Paneth differentiation); assay: basal (non-stimulated) secreted lysozyme activity relative to plate median (log10 fold change); higher = more Paneth cell lysozyme secretion; details: 6 d
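For basal (non-stimulated) secreted lysozyme activity relative to plate median in this document: ISC-enriched organoid precursors grown as 2.5D pseudo-monolayer on Matrigel, compound given on day 0 and day 3, plate values LOESS-normalized before median fold change, three murine donors.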
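For cellular ATP (CellTiter-Glo 3D) relative to plate median in this document: 2.5D pseudo-monolayer culture of ISC-enriched organoids partly embedded atop Matrigel, compound added on day 0 and again on day 3, per-plate LOESS correction before median fold change.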

Row | Structure (SMILES) | cellular ATP (log10) ([1]; 0.08 µM) | cellular ATP (log10) ([1]; 0.4 µM) | cellular ATP (log10) ([1]; 2 µM) | cellular ATP (log10) ([1]; 10 µM) | carbachol-stimulated secreted lysozyme activity (log10) ([2]; 0.08 µM) | carbachol-stimulated secreted lysozyme activity (log10) ([2]; 0.4 µM) | carbachol-stimulated secreted lysozyme activity (log10) ([2]; 2 µM) | carbachol-stimulated secreted lysozyme activity (log10) ([2]; 10 µM) | basal (log10) ([3]; 0.08 µM) | basal (log10) ([3]; 0.4 µM) | basal (log10) ([3]; 2 µM) | basal (log10) ([3]; 10 µM)
1 | Clc1ccc(NN=C(c2ccccc2)c2ccccn2)nc1 | 0.254 ± 0.3 | 0.108 ± 0.15 | 0.0916 ± 0.15 | -0.181 ± 0.17 | 0.266 ± 0.14 | 0.0104 ± 0.024 | -0.0222 ± 0.083 | -0.0715 ± 0.47 | 0.178 ± 0.13 | 0.0303 ± 0.066 | 0.0055 ± 0.072 | -0.153 ± 0.12
2 | Cn1c(N2CCCCS2(=O)=O)nc(C(=O)NCc2ccc(F)cc2)c(O)c1=O | 0.318 ± 0.15 | 0.238 ± 0.11 | 0.279 ± 0.16 | 0.138 ± 0.12 | 0.142 ± 0.018 | 0.21 ± 0.21 | 0.035 ± 0.05 | 0.0902 ± 0.079 | 0.107 ± 0.07 | 0.135 ± 0.065 | 0.11 ± 0.064 | 0.0705 ± 0.1
3 | Cc1cccc(CC(=O)N2CCc3c2ccc(-c2cn(C)c4ncnc(N)c24)c3F)n1 | 0.0678 ± 0.12 | 0.115 ± 0.074 | 0.0825 ± 0.15 | 0.119 ± 0.1 | -0.00469 ± 0.11 | 0.115 ± 0.26 | 0.0377 ± 0.06 | 0.175 ± 0.36 | -0.0306 ± 0.059 | -0.0455 ± 0.027 | -0.0335 ± 0.093 | -0.0118 ± 0.09
4 | CCOc1ccc(Cc2cc([C@@H]3O[C@H](CO)[C@@H](O)[C@H](O)[C@H]3O)ccc2Cl)cc1 [Dapagliflozin] | 0.41 ± 0.26 | 0.254 ± 0.026 | 0.293 ± 0.11 | 0.301 ± 0.18 | 0.3158 ± 0.0022 | 0.152 ± 0.052 | 0.162 ± 0.2 | 0.138 ± 0.25 | 0.17 ± 0.099 | 0.0967 ± 0.064 | 0.159 ± 0.073 | 0.136 ± 0.089
5 | Nc1ncnc2n[nH]c(Nc3ccc(F)cc3)c12 | 0.108 ± 0.3 | -0.293 ± 0.68 | -0.46 ± 0.4 | 0.0552 ± 0.34 | 0.116 ± 0.074 | 0.119 ± 0.19 | -0.128 ± 0.18 | -0.128 ± 0.25 | 0.218 ± 0.23 | -0.0407 ± 0.031 | -0.0548 ± 0.064 | -0.0369 ± 0.13
6 | COc1cccc(C=NCCN=Cc2cccc(OC)c2[O-])c1[O-].[Cl-].[Mn+3] | -0.0147 ± 0.087 | -0.162 ± 0.3 | 0.0909 ± 0.3 | -0.0238 ± 0.47 | 0.04 ± 0.043 | 0.103 ± 0.21 | -0.0465 ± 0.047 | -0.19 ± 0.094 | 0.0682 ± 0.089 | 0.00298 ± 0.0042 | 0.0283 ± 0.069 | -0.0852 ± 0.05
7 | OC[C@H]1O[C@@H](c2ccc(Cl)c(Cc3ccc(O[C@H]4CCOC4)cc3)c2)[C@H](O)[C@@H](O)[C@@H]1O | -0.296 ± 0.24 | -0.0746 ± 0.17 | -0.192 ± 0.058 | -0.134 ± 0.23 | -0.000657 ± 0.00093 | -0.0469 ± 0.048 | -0.142 ± 0.14 | -0.043 ± 0.042 | -0.00594 ± 0.07 | -0.0338 ± 0.028 | -0.00935 ± 0.06 | 0.0166 ± 0.035
8 | Cn1cc(/C=C2\C(=O)Nc3cccnc32)c2ccccc21 | 0.0476 ± 0.23 | -0.105 ± 0.14 | 0.152 ± 0.15 | -0.113 ± 0.15 | 0.0397 ± 0.066 | 0.286 ± 0.26 | 0.145 ± 0.012 | 0.0988 ± 0.076 | 0.0459 ± 0.0076 | 0.0607 ± 0.038 | 0.117 ± 0.012 | 0.0876 ± 0.18
9 | O=C(NNc1ccccc1)c1ccncc1 | -0.146 ± 0.052 | -0.0946 ± 0.041 | -0.433 ± 0.28 | -0.853 ± 0.059 | 0.0228 ± 0.04 | -0.0439 ± 0.061 | -0.173 ± 0.2 | -0.445 ± 0.097 | 0.0827 ± 0.18 | 0.00447 ± 0.17 | -0.107 ± 0.073 | -0.284 ± 0.1
10 | Cc1cc(Nc2ccc(NC(=O)c3ccc(Nc4ccnc5ccccc45)cc3)cc2)nc(N)n1 | 0.215 ± 0.44 | 0.265 ± 0.29 | 0.317 ± 0.23 | 0.208 ± 0.22 | 0.0567 ± 0.056 | 0.156 ± 0.016 | 0.0593 ± 0.047 | -0.0522 ± 0.0079 | 0.0714 ± 0.035 | 0.142 ± 0.0062 | 0.115 ± 0.11 | -0.0459 ± 0.031
11 | COc1cc(N2CCN(C)CC2)ccc1Nc1nccc(-c2cn(C)c3cnccc23)n1 | 0.292 ± 0.28 | 0.337 ± 0.49 | 0.15 ± 0.11 | -0.533 ± 0.67 | 0.0599 ± 0.074 | 0.124 ± 0.087 | 0.116 ± 0.0047 | -0.221 ± 0.21 | 0.128 ± 0.097 | 0.0823 ± 0.12 | 0.0582 ± 0.059 | -0.148 ± 0.11
12 | COc1ccc(C2CNC(=O)C2)cc1OC1CCCC1 (centres undefined) [Rolipram] | 0.419 ± 0.25 | 0.237 ± 0.23 | 0.406 ± 0.14 | 0.279 ± 0.15 | 0.254 ± 0.14 | 0.14 ± 0.2 | 0.303 ± 0.35 | 0.149 ± 0.23 | 0.266 ± 0.29 | 0.0446 ± 0.042 | 0.155 ± 0.14 | 0.11 ± 0.1
13 | CCN(CC)CC(=O)Nc1c(C)cccc1C [Lidocaine] | -0.0787 ± 0.16 | -0.153 ± 0.25 | 0.034 ± 0.1 | -0.256 ± 0.089 | 0.0221 ± 0.015 | 0.0155 ± 0.0072 | -0.0551 ± 0.046 | -0.0239 ± 0.011 | 0.106 ± 0.055 | 0.0165 ± 0.064 | 0.000882 ± 0.043 | 0.0191 ± 0.034
14 | O=C(N/N=C/c1ccc(O)c(O)c1)c1cc2ccccc2cc1O [Dynasore] | -0.248 ± 0.34 | -0.253 ± 0.79 | -0.152 ± 0.48 | -0.0108 ± 0.18 | 0.161 ± 0.13 | 0.235 ± 0.18 | 0.0135 ± 0.0062 | 0.0899 ± 0.031 | 0.0495 ± 0.079 | -0.0202 ± 0.055 | 0.0361 ± 0.033 | 0.0476 ± 0.099
15 | CC(C)(Cc1ccc2ccccc2c1)NC[C@@H](O)COc1cccc(Cl)c1C#N | 0.149 ± 0.27 | -0.195 ± 0.43 | -0.246 ± 0.35 | -0.118 ± 0.32 | 0.173 ± 0.13 | -0.0893 ± 0.038 | -0.159 ± 0.21 | -0.12 ± 0.14 | 0.162 ± 0.081 | -0.0478 ± 0.059 | -0.0774 ± 0.11 | -0.0686 ± 0.04
16 | COc1ccc2cc(-c3nc(-c4ccc([S+](C)[O-])cc4)[nH]c3-c3ccncc3)ccc2c1 (centres undefined) [Tie2 kinase inhibitor] | -0.11 ± 0.29 | 0.102 ± 0.078 | -0.128 ± 0.4 | -0.421 ± 0.81 | 0.0238 ± 0.047 | -0.0283 ± 0.0022 | -0.0149 ± 0.021 | -0.128 ± 0.18 | 0.0383 ± 0.064 | -0.00717 ± 0.014 | 0.0107 ± 0.031 | -0.055 ± 0.078
17 | COc1ccccc1Oc1c(NS(=O)(=O)c2ccc(C(C)(C)C)cc2)nc(-c2ncccn2)nc1OCCO [Bosentan Hydrate] | 0.204 ± 0.19 | 0.207 ± 0.15 | 0.121 ± 0.093 | 0.0853 ± 0.13 | 0.164 ± 0.24 | 0.0561 ± 0.23 | 0.00296 ± 0.13 | 0.0681 ± 0.13 | 0.0901 ± 0.12 | 0.0677 ± 0.15 | 0.0387 ± 0.11 | 0.0583 ± 0.11
